# This is one part of the list. Sequences were assembled here from the parent chain. Values near 0.05 are background.
# B1: TEV protease; numbered along this chain (parent)
# chain: MGESLFKGPRDYNPISSSICHLTNESDGHTTSLYGIGFGPFIITNKHLFRRNNGTLVVQSLHGVFKVKDTTTLQQHLVDGRDMIIIRMPKDFPPFPQKLKFREPQREERICLVTTNFQTKSMSSMVSDTSCTFPSGDGIFWKHWIQTKDGQCGSPLVSTRDGFIVGIHSASNFTNTNNYFTSVPKNFMELLTNQEAQQWVSGWRLNADSVLWGGHKVFMVKPEEPFQPVKEATQL
# Variants of: B1
# Test: raw area under fraction-flipped curve 0-4 h after induction (AUC4h, not background-subtracted), DNA-recorder readout of cleavage of the substrate (dimensionless); higher = more cleavage of the substrate by the protease variant
# Settings: temperature: 34 °C; time window: 0-4 h after rhamnose induction
# Protocol: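 In vivo DNA recorder in E. coli TOP10(DE3) ΔrhaA at 34 °C. Each TEVp single-site mutant (parent TEVp 0) is paired with a single-site variant of the 7-mer TEVs (canonical ENLYFQ|S). The substrate sits between flexible linkers in a Bxb1-sfGFP-TEVs-SsrA fusion, so cleavage stabilises Bxb1 and speeds flipping of a recombination array, read by NGS. The value is the raw area under the fraction-flipped curve over 0-4 h after rhamnose induction (AUC4h), with ≥20 reads per time point. It is not background-subtracted; inactive controls average about 0.047.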
# 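Further: Bxb1 expression induced with 0.2% (w/v) L-rhamnose at OD600 near 0.5, cultures sampled hourly, flipped fraction per protease–substrate barcode pair counted by paired-end Illumina sequencing.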
Variant,area with substrate CNLYFQS,area with substrate FNLYFQS,area with substrate HNLYFQS,area with substrate INLYFQS,area with substrate KNLYFQS,area with substrate LNLYFQS,area with substrate PNLYFQS,area with substrate QNLYFQS,area with substrate RNLYFQS,area with substrate SNLYFQS,area with substrate TNLYFQS,area with substrate VNLYFQS,area with substrate WNLYFQS,area with substrate GNLYFQS,area with substrate MNLYFQS,area with substrate NNLYFQS,area with substrate YNLYFQS
R109V,0.0557,0.0591,0.0649,0.0599,0.058,0.063,0.0234,0.075,0.071,0.052,0.0382,0.112,0.0666,,,,
E103R,0.0668,,0.0099,,,0.0642,0.0655,,,0.0734,0.0565,0.043,0.0578,0.0653,0.0703,0.0415,0.0404
L99G,0.0642,,0.0627,,,0.05,0.0729,,,0.0605,0.0584,,0.0521,0.0637,,0.0406,
L99F,0.0592,,,0.0637,0.0504,0.0717,0.0634,0.0911,,0.0624,0.0575,0.0654,,0.0498,,0.0607,
F101L,0.0583,,0.0615,,,0.0663,0.0626,,0.0551,,,,,0.0552,,,
F101C,0.0612,0.0481,0.0609,0.0332,0.0758,0.049,0.0516,0.057,,0.0674,,0.0607,0.0561,0.0649,0.0509,0.0552,0.0776
F101R,0.0527,,,,0.05,,0.0434,,0.0523,0.0532,0.0665,0.0541,,0.043,,,0.0511
P96I,0.0709,,0.0702,0.0605,0.056,,0.0547,0.0781,,0.0668,0.0682,0.0752,0.064,0.0619,0.0624,0.0623,0.0579
T115L,0.117,0.0422,0.0623,0.0633,0.066,,0.0674,,,,0.0593,,0.0639,0.0742,0.0662,0.0464,
T115A,0.0751,0.066,0.0592,0.0663,0.0638,0.0727,0.0594,,0.0495,,0.1,,,,,0.08,
K100C,0.0728,,0.0711,0.0562,0.0292,0.0598,0.0801,,0.056,,0.0672,,0.0688,0.0716,,0.0622,0.0618
R102P,0.0374,0.046,0.0497,0.06,0.0794,0.0458,0.0485,,,,0.0547,,0.0364,,,,0.0397
F117A,0.11,,0.1,,,,,,,0.0663,,0.0498,0.0599,,0.0722,0.0511,
F117C,0.0618,0.0495,0.063,0.0517,,0.0658,0.0673,,,0.0628,0.105,,,,0.0617,0.0822,0.0551
C111P,0.0618,,0.0282,,0.0556,,0.0436,0.0665,,,0.0504,,0.0506,,,,
T114I,0.0726,,0.0575,0.0711,,,0.0779,,,0.071,0.002,0.0447,0.0407,0.0661,,0.0623,
T114E,0.0841,,0.0618,0.0664,,0.0649,0.0598,,,0.0795,0.0824,,0.0373,,,,
F95K,0.0384,,,,,,,,0.048,,,,0.0319,,,0.0548,

Variant,area with substrate CNLYFQS,area with substrate FNLYFQS,area with substrate HNLYFQS,area with substrate INLYFQS,area with substrate KNLYFQS,area with substrate LNLYFQS,area with substrate PNLYFQS,area with substrate QNLYFQS,area with substrate RNLYFQS,area with substrate SNLYFQS,area with substrate TNLYFQS,area with substrate VNLYFQS,area with substrate WNLYFQS,area with substrate GNLYFQS,area with substrate MNLYFQS,area with substrate NNLYFQS,area with substrate YNLYFQS
F95I,0.0667,0.0492,0.0611,0.0846,0.0626,0.0582,,,,0.0578,,0.0701,0.0455,,0.0456,,
E108F,0.0828,,0.053,,,,0.0617,0.0546,,0.0425,0.0438,,0.0525,,,,
Q105P,0.0486,0.0491,0.0504,,0.0626,0.0546,0.0465,,0.0583,,0.0437,0.0468,0.0586,0.0501,,0.0487,
Q105S,0.0556,0.0695,,0.0582,0.051,0.0713,0.0774,,,,0.0613,0.0751,0.0466,0.0652,,0.0444,0.0443
I110Y,0.233,0.0629,0.0632,0.0649,,,,,,,0.0589,,,,,0.0746,
I110L,0.0681,,0.0697,,,0.0553,0.08,,,0.0371,0.0646,,0.0623,,,,0.0626
R106V,0.0603,,0.0625,,,,0.0699,,,0.0954,0.0581,0.0317,0.0707,,,,0.0593
R106Y,0.0708,,0.0574,,0.0734,0.067,0.0808,,,0.085,0.0582,0.083,0.0604,0.0606,0.0636,0.0712,
R106M,0.0543,,0.0741,,0.0672,,,,,0.0756,,,0.0675,,,,
E107I,0.0556,,0.043,0.0662,0.0708,,,0.0602,0.0644,0.0589,,0.0626,0.0594,,,,
E107R,0.0824,0.0673,0.0662,0.0539,,0.0709,0.0798,,,,,,0.048,0.0688,,0.0642,
E107P,0.0709,0.0592,0.0457,0.0432,0.0636,,0.0721,,,0.0741,0.0636,0.0726,,0.0642,0.0682,,
K98D,0.0758,0.0817,0.0672,0.0617,0.0619,0.0607,0.0766,0.0749,0.0616,,0.0716,,0.0499,,0.0602,0.072,0.062
N116H,0.0712,0.0719,0.0596,0.113,0.0672,0.0674,,,,,,,0.0589,,0.0663,,0.0735
V113I,0.0661,0.0469,0.0711,0.0632,0.0635,,0.0546,,,0.0707,0.0637,,0.0608,0.0889,,,
V113F,0.0606,,0.0596,,,,,,,,0.0554,,0.0683,,,,0.0653
V113R,0.0506,0.0525,0.0514,0.0494,0.0702,0.0673,0.0587,,,0.059,0.0618,0.0484,0.0568,,,0.0571,0.0642
